# Laboratory results reported in the supplement of paper PMC11417369.
# The list shows a part of the results.
# Test system: PfSIP2 AP2 domain 1 (GST-tagged)
# Test: gcPBM binding intensity (ln(normalized median fluorescence intensity)); higher = stronger DNA binding
# How it was run: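 Binding intensity values are the highest Masliner-normalised natural-log median intensity among replicate spots of either probe orientation. The binding step lasted 1 h in 1× PBS with 1% milk, 0.2 mg/ml BSA, 0.5% salmon testes DNA and 0.03% Triton X-100, using GST-tagged P. falciparum DNA-binding domains expressed in E. coli on an Agilent 4 × 180k array of primer-extended double-stranded 36-bp intergenic genomic probes plus negative controls. Alexa488 anti-GST antibody and a 488 nm scan detected bound protein.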
row,Sequence,gcPBM binding intensity (ln)
1,CACGAACACAAACACAAACACACATCATATATATAT [CACACA_site1322],9.04
2,ACTTTAACCTGAACGGTGCATAAAATTTTGGCATTA,10.8
3,AATATATATAAAAAGGGAAAAATATATAAATAGATA [XGTACX_negctrl_site52],6.77
4,AAAAAATTGACTAATGCACACAATTACAGATATATA [CACACA_site5010],8.06
5,TCGTGCATAAATCATACACACACACCGATATATATA [CACACA_site8767],8.41
6,TCACAATTTTTTAGTACACACATATAAATATATAAA [CACACA_site1537],7.33
7,TTTGTATCCTTTTTGACATGCAACCATTCGGGTACA [TGCATGCA_site506],6.86
8,AAAAAAAAAAAAAACGCACACATTTTTACAATTCTA [CACACA_site3271],7.61
9,TTTCATTAATCTAATAGTACAGAAAATTGAGAAAAA [XGTACX_site8395],7.33
10,TCTATTAATTAATATACACACATTATGTATATATAT [CACACA_site2541],7.37
11,GTATACAAACATATAAATATAAATGTATTATTTGTT [CACACA_negctrl_site756],6.67
12,ATATGCATAAAAAGAGGTACACATAAAATATATATA [XGTACX_site5864],7.42
13,TATACACATATATAAAGTACATATATGTGTAAAAAA [XGTACX_site8582],6.87
14,TCATATATAAAAAGGGTGCTTTTAAAAGAATGGATT,8.45
15,CAAAAAATGAAACACACACACACACCCATAAATAAA [CACACA_site1231],7.13
16,AATATTTTTTGTTTTACACACATATATAGATATATA [CACACA_site7662],6.93
17,CAGATATTTGTTCATATACACACTTTTGATAAAATA [CACACA_site1219],6.9
18,TTTTTTGGGTAAAATTATAAAATATGTATATATAAA [CACACA_negctrl_site27],7
19,TTTTTTTTTGTATTTTCACACATTTTTTTTTTTTTT [CACACA_site5407],7.38
20,TTATTTAAACAAATCACACACAAATATATATACATA [CACACA_site2019],6.92
21,CATATTTTCAAAATTAGTACATAAAAAAAAAAATAT [XGTACX_site3101],7.14
22,TATAATCATATATACACACACATATATATATATATA [CACACA_site2168],9.08
23,TCTTCCGCTTTATGGAGTACTATGGTAGCCTTTCCT [XGTACX_site2958],6.7

row,Sequence,gcPBM binding intensity (ln)
1,GACCTACAAAAAGGCACACATATACGCATACATACA [CACACA_site2179],7.39
2,AATTTTAATTATATCACACATAATATATACCAAAAA [CACACA_site6011],6.88
3,TTTAATACTTTTTTCTGTACACACTTGATTTACTAT [XGTACX_site5925],7.3
4,AAAAAAAAAAGACACACACACACACGGAGATATATA [CACACA_site6216],6.94
5,TACATATTTTTATATACACACAATAATTACTATAAA [CACACA_site6879],7.23
6,TAGGTACATAAATTGGTGCAAAGTGTACATATATAT,9.97
7,AAAATACATAAACGTTCACACATTGAAGATCACAAG [CACACA_site5347],6.91
8,AACATATACACGAACACACACACATATAAATAAATA [CACACA_site6380],7.25
9,AAAAATACAATTTTCTTGCACTTTGTTGCATTGTAA,7.75
10,CAAAATATAAAAACATGTACATAAATATTAACGAAT [XGTACX_site2380],7.17
11,TCATCCACATATTGTAGTACAAGATAATTGTTTATT [XGTACX_site1634],7.37
12,ATATGTTTATTAAATGCATGTCAAGACTTAAGATAT [TGCATGCA_site329],7.32
13,TTTATTATTTTAACGTGTACAAGGTATATAATATTC [XGTACX_site5241],7.08
14,TAGGTAAATGCAAATTGGTTTAAATCAAAATATAAA [XGTACX_negctrl_site250],6.75
15,GTATCAAAAGAATACACACACACATACAGATATATA [CACACA_site5975],7.26
16,TGATATTATATATATACACACATGTATGTATTTATA [CACACA_site4874],6.95
17,ATAAACAAACATAAATCTGATTTTAATTTTTTTAAG [CACACA_negctrl_site313],6.77
18,TTATATTTTCTCCGCGTGCACATATGTATACTATAC,9.76
19,GAAATCTAAATAGAAACACACATATATATATATATA [CACACA_site3863],9.23
20,TTTTTGTTTTTTTGTTTATCGTTCGTGACTACATGA [TGCATGCA_negctrl_site124],6.99
21,TAGGGTAGTTATAATTGTACTTTTCTCCAAAAAAAA [XGTACX_site7321],6.98
22,AAAAATAAAAAATATAAAAATATAAAAATATAAAAA [XGTACX_negctrl_site51],6.75
